Reference: patent publication US20240425575A1 (SOTER BIOPHARMA PTE, published 2024)

T1: recombinant human ANG2 protein corresponding to Lys275-Phe496 of human ANG2 (human, UniProt O15123 275-496)
T1 construct: also called hANG2
T1 sequence: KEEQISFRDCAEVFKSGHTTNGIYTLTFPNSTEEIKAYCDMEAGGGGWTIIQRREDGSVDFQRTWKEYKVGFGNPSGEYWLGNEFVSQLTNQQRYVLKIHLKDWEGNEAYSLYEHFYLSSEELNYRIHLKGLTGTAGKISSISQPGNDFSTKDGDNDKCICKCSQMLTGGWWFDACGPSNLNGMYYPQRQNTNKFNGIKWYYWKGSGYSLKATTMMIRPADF

T2: monkey ANG2 protein (monkey (cyno), UniProt O15123 275-496 (human entry), limits assumed)
T2 construct: also called cynoANG2
T2 chain: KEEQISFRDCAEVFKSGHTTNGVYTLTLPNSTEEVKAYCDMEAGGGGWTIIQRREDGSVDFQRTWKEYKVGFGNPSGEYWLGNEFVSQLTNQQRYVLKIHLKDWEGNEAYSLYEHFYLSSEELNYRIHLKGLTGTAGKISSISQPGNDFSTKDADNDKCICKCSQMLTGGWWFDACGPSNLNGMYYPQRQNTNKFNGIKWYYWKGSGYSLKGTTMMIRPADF

T3: human ANG2 protein (623-AN-025/CF, R&D) (human, UniProt O15123 19-496, limits assumed)
T3 construct: His-tagged by the anti-His detection; tag not described; also called hANG2
T3 sequence (looked up): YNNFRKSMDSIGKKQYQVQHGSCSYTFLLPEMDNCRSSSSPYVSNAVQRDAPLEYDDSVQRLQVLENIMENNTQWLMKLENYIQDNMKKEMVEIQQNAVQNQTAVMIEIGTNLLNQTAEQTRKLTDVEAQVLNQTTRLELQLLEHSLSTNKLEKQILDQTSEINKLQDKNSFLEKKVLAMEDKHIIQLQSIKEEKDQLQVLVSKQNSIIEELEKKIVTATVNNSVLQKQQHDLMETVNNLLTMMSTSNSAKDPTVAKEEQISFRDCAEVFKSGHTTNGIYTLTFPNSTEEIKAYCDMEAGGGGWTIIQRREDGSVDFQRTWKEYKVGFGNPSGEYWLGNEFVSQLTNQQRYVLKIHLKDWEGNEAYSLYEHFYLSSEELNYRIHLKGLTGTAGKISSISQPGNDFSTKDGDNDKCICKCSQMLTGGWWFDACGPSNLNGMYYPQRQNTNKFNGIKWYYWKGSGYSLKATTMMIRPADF


Columns and labels:
[1] = target: T1, recombinant human ANG2 protein …; assay: ELISA, hANG2 coated, anti-human Fc-HRP
Description: (§1) An ELISA plate was coated with an ANG2 protein solution in 2 μL/well and placed overnight at 4° C. Supernatant was discarded, and 300 μL blocking solution (PBS containing 3% BSA) was added to each well and blocked for 2 h at 37° C. The anti-ANG2 heavy-chain single-domain antibodies-Fc were subjected to gradient dilution with a diluent of PBS containing 1% BSA. For example, an initial concentration of dilution was 500 nM, and the anti-ANG2 heavy-chain single-domain antibodies-Fc were diluted 10 times to 8 concentration gradients. The diluted anti-ANG2 heavy-chain single-domain antibodies-Fc were added to wells of the ELISA plate in 200 μL per well and subjected to standing incubation for 2 h at room temperature, and supernatant was discarded. Washing was performed with PBST (PBS contained 0.1% Tween 20) in 200 μL/well three times. Diluted HRP-labeled anti-human Fc secondary antibodies (SIGMA, A8667) were added in a volume of 100 μL/well and incubated for 1 h at room temperature, wherein the secondary antibodies were used after dilution according to 1:20000 with a diluent of PBS containing 1% BSA. Washing was performed with PBST in 200 μL/well five times. A TMB color developing solution (BD, 55214) was added in 100 μL/well, and color developing was performed for 8 min at 37° C. 2M HCl stopping solution was added in 100 μL/well. After the stopping solution was added, values at 450 nm were read with the microplate reader within 30 minutes. The data were analyzed by using GraphPad Prism6.0 software, and the fitting of the affinities was performed to obtain EC50 values. B2-E2-Fc has the highest affinities for the human ANG2 and monkey ANG2 proteins.

monkey ANG2 protein = target: T2, monkey ANG2 protein; assay: ELISA, cynoANG2 coated, anti-human Fc-HRP
Description: as §1

[2] = target: T3, human ANG2 protein (623-AN-025/CF, R&D); assay: flow cytometry, inhibition of human ANG2 (10 µg/mL) binding to HUVEC cells
Description: HUVEC cells (H-003, Allcells) in a good growth state were prepared into a single cell suspension. After cell counting, the cells were plated in a 96-well plate in 10⁵ cells/well. A final concentration of the human ANG2 protein (623-AN-025/CF, R&D) was 10 μg/mL, which was constant. The antibodies to be detected were added to each well according to an experimental design, respectively. The highest concentration of the antibodies was 1000 nM, the antibodies were subjected to 5-fold dilution in sequence and 7 concentration gradients were set in total, and meanwhile, a blank control and a positive control RG7716 (ATAD00534, Atagenix) were set. After the cells were incubated for 30 min at room temperature, cells in each well were washed three times and resuspended, and fluorescence-labeled secondary antibodies PE anti-His (362603, Biolegend) were added and incubated in darkness for 30 min at room temperature. The cells in each well were washed three times, resuspended and loaded on a flow cytometer for detection.

| EC50 [1] | EC50 (monkey ANG2 protein) | IC50 [2] | Binder |
| --- | --- | --- | --- |
| 2.27 nM | 0.542 nM |  | B4-C11-Fc (Fc fusion, also called anti-ANG2 heavy-chain single-domain antibody-Fc B4-C11-Fc) QVQLVESGGGLVQAGGSLRLSCAASGSTFSNVVAGWYRQAPGKQRELVAGISNIGDTRYADSVKGRFTISRDNAKKAVYLQMNSLKPEDTAVYYCYAKYWARDYWGQGTQVTVSSGGGGSGGGGSGGGGS[human IgG1 Fc left out] |
| 2.23 nM | 0.673 nM |  | B1-H9-Fc (Fc fusion, also called anti-ANG2 heavy-chain single-domain antibody-Fc B1-H9-Fc) EVQLVESGGDLVQAGGSLRLSCAASGSTFSSTIAGWYRQAPGKQRELVAGISNIGDTRYADSVKGRFTISRDNAKKTVYLQMNSLKPEDTAVYYCYAKYWARDYWGQGTQVTVSSGGGGSGGGGSGGGGS[human IgG1 Fc left out] |
| 3.51 nM | 0.93 nM |  | B3-H7-Fc (Fc fusion, also called anti-ANG2 heavy-chain single-domain antibody-Fc B3-H7-Fc) EVQVVESGGGLVQAGGSLRLSCAASGSTAINSVAGWYRQAPGKQRELVAGISNIGDTRYADSVKGRFTISRDNAKKTVYLQMNSLKSEDTAVYYCYAKYWARDYWGQGTQVTVSSGGGGSGGGGSGGGGS[human IgG1 Fc left out] |
| 0.0233 nM | 0.306 nM |  | B1-G3-Fc (Fc fusion, also called anti-ANG2 heavy-chain single-domain antibody-Fc B1-G3-Fc) EVQVVESGGGLVQPGGSLRLSCVASMPSGISFSNRGMAWYRQAPGKQRELVAAIDSAGSTRYQDSVKGRFTISRDNAKNTVFLQMNSLKPEDTAVYYCNQPAFKAWGQGTQVTVSSGGGGSGGGGSGGGGS[human IgG1 Fc left out] |
| 0.00584 nM | 0.273 nM | 11.2 nM | B2-E2-Fc (Fc fusion, also called anti-ANG2 heavy-chain single-domain antibody-Fc B2-E2-Fc) EVQLVESGGGLVQPGESLRLSCVASGFPSGFTFSDYQMYWYRQAPGKERELVAIISNDGLRKTYADSVKGRFTISRDNAKNTMFLQMNSLKPEDTAVYVCNVRRANRDDWGQGTQVTVSSGGGGSGGGGSGGGGS[human IgG1 Fc left out] |
| 0.0424 nM | 0.707 nM |  | B4-D3-Fc (Fc fusion, also called anti-ANG2 heavy-chain single-domain antibody-Fc B4-D3-Fc) QLQLVESGGGLVQPGGSLRLSCVASGASGISFSNRGMAWYRQAPGKQRELVAAIDSAGSPAYAGSVKGRFTISRDNAKNTVFLQMNSLKPEDTAVYYCNQPRFNLWGLGTQVTVSSGGGGSGGGGSGGGGS[human IgG1 Fc left out] |
| 0.0392 nM | 0.589 nM |  | B1-G8-Fc (Fc fusion, also called anti-ANG2 heavy-chain single-domain antibody-Fc B1-G8-Fc) QVQLVESGGGLVQTGDSLRLSCVAPGISFSNRGMAWYRQAPGKQRELVAAIDSAGSQRYAGSVKDRFTISRDNAKNTVFLQMNSLKPEDTAVYYCNQPRFNLWGQGTQVTVSSGGGGSGGGGSGGGGS[human IgG1 Fc left out] |
| 0.241 nM | 0.624 nM |  | B3-C11-Fc (Fc fusion, also called anti-ANG2 heavy-chain single-domain antibody-Fc B3-C11-Fc) EVQLVESGGGLVQAGGSLRLSCFVSGSTFSASLMGWYRQAPGKERELVAGISNIGNTVYADSAKGRFTISRDGAKNTVHLQMNALKPEDTAVYYCYATVPRAAWGQGTQVTVSSGGGGSGGGGSGGGGS[human IgG1 Fc left out] |
| 0.262 nM | 0.641 nM |  | B2-A6-Fc (Fc fusion, also called anti-ANG2 heavy-chain single-domain antibody-Fc B2-A6-Fc) QLQLVESGGGLVQAGGSLRLSCFVSGSTFSASLMGWYRQAPGKERELVAGISNIGNTVYADSAKGRFTISRDGAKNTVHLQMNALKPEDTAVYYCYATVPRAAWGQGTQVTVSSGGGGSGGGGSGGGGS[human IgG1 Fc left out] |
| 1.11 nM | 1.44 nM |  | B2-F10-Fc (Fc fusion, also called anti-ANG2 heavy-chain single-domain antibody-Fc B2-F10-Fc) QVQLVESGGGLVQAGGSLRLSCGASGSAVSITLMAWYRQAPGKQRELVAGISNIGDTNYVDSVKDRFTISRINAKNAMYLQMNSLKPEDTAVYYCFAQDWGGHHYWGQGTQVTVSSGGGGSGGGGSGGGGS[human IgG1 Fc left out] |
